Data as given in PubChem BioAssay AID504832 (National Center for Advancing Translational Sciences (NCATS), 2011).
Out of some 310,000 compounds screened, about 18,000 (5.8%) were called active. The inconclusive results got no clear call from the source; some entries with a clear call stand among them for comparison. The call rests on the fitted dose curve; in most records, active means well fitted inhibition curve with a large enough effect; inconclusive means small, poorly fitted or top-dose-only effect, or another doubt; inactive means no such curve, though single readings can be large or run the other way. Potencies of inconclusive entries are left out as doubtful fits.

Assay: Primary qHTS for delayed death inhibitors of the malarial parasite plastid, 48 hour incubation
Conditions: P. falciparum luciferase growth in erythrocytes; series mostly up to 28.7 µM
How it was run: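 Cell-based growth assay: transgenic P. falciparum expressing firefly luciferase, cultured in red cells within RPMI 1640 containing 0.5% w/v Albumax, 24 mM bicarbonate and gentamycin. A drop in luciferase activity indicates inhibition.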
Potency means the concentration at half of the fitted maximal effect; tags describe the fitted curve by direction and shape.

SMILES	Potency
CCN(CC)C(=O)Cn1nc(-c2ccc(Cl)cc2)c2ccccc2c1=O	inactive
COc1ccc(C(=O)/C=C/c2ccc(OCc3ccccc3)cc2)cc1CSCC(=O)O	inactive
CCN1CCN(C(=O)c2oc(=O)c3ccccc3c2-c2ccc(C)cc2)CC1	inconclusive [inhibitor, partial curve]
CCOC(=O)Cn1cc(C(=O)c2cccs2)c2ccccc21	inactive
CN1CCN(c2oc(-c3ccccc3Cl)nc2S(=O)(=O)c2ccccc2)CC1	inconclusive [inhibitor, partial curve, poor fit]
COC(=O)CC(NC(=O)c1ccco1)c1ccc(C(C)C)cc1 (configuration not stated)	inactive
CCc1c(C)nc(SCC(=O)NC2CCCC2)[nH]c1=O	inactive
Cc1ccccc1C(=O)NC1CCN(CC(=O)NC2CCCCC2)CC1	inactive
Cc1c(C)c2ccc(OCC(=O)N3CCC(C(=O)O)CC3)c(C)c2oc1=O	inconclusive [inhibitor, full curve, poor fit]
CCOC(=O)C1(Cc2ccccc2)CCN(Cc2cccc(OC)c2O)CC1	inconclusive [inhibitor, full curve]
N#Cc1ncn(-c2ccc(Oc3ccccc3)cc2)c1N	inactive
COc1ccc(CCNC(=O)c2cc(-c3cc(C)cc(C)c3O)n[nH]2)cc1OC	inconclusive [inhibitor, single point]
Cc1ccc2cc3cc(C(=O)N4CC(C)CC(C)C4)oc3nc2c1 (configuration not stated)	inconclusive [inhibitor, partial curve]
CCN(CC(=O)NCc1cccs1)C(=O)/C=C/c1cc(OC)c(OC)c(OC)c1	inactive
COC(=O)C1=C(c2ccc(OC(F)(F)F)cc2)C[C@@H]2CC[C@H]1N2C(=O)NCCNC(C)=O	inconclusive [inhibitor, single point]
CCOC(=O)c1c(C)[nH]c(C)c1C(=O)COC(=O)c1cccc(S(=O)(=O)N(CC)CC)c1	active: 14.7 µM
COc1ccc(C)cc1NC(=O)C1COc2ccccc2O1 (configuration not stated)	inactive
CCOC(=O)c1cc(C#N)c(N2CCNCC2)nc1C(F)(F)F	inconclusive [inhibitor, partial curve, poor fit]
COc1ccc(CCNC(=O)c2cc3c(=O)n4ccccc4nc3n(CC3CCCO3)c2=N)cc1OC (configuration not stated)	inconclusive [inhibitor, partial curve, poor fit]
CCOc1ccccc1CN1CCCC(C(=O)c2ccc(OC)c(OC)c2)C1 (configuration not stated)	inconclusive [inhibitor, partial curve]
O=C(CN1C(=O)S/C(=C\c2ccccc2Cl)C1=O)NC1C=CS(=O)(=O)C1 (configuration not stated)	inactive
CCOC(=O)c1ccc(N2C(=O)c3n[nH]c(C)c3C2c2ccccc2)cc1 (configuration not stated)	inconclusive [inhibitor, single point]
COc1ccccc1N1CCN(CCCNC(=O)Nc2ccccc2C)CC1	inconclusive [inhibitor, partial curve]

SMILES	Potency
Cc1cc(C)nc(NC(=O)c2cc(Br)ccc2Cl)n1	inconclusive [inhibitor, single point]
CC(C)C[C@@H](C(=O)NC1CCN(Cc2ccccc2)CC1)N1C(=O)N2CCc3c([nH]c4ccccc34)[C@@]2(C)C1=O	inconclusive [inhibitor, full curve]
CC(NC(=O)C12CC3CC(CC(C3)C1)C2)C(=O)N/N=C/C1=C(N2CCOCC2)C(=C\c2cccc([N+](=O)[O-])c2)/CC1 (configuration not stated)	inconclusive [inhibitor, single point]
COc1cccc(C(=O)Nc2nnc(-c3ccc(F)cc3)o2)c1	inconclusive [inhibitor, partial curve, poor fit]
Cc1nc(NC(=O)CCl)sc1C(=O)N(C)C	inconclusive [inhibitor, partial curve]
COc1ccc(C(=O)CSc2[nH]c(=O)cc(C(F)(F)F)c2C#N)cc1	inconclusive [inhibitor, partial curve, poor fit]
CCCCCOc1ccc(C(=O)Nc2ccc(N3CCOCC3)cc2N2CCOCC2)cc1	inconclusive [inhibitor, partial curve]
Cc1ccc(C)c(NC(=O)CCN2CCN(CCO)CC2)c1	inactive
Cc1cccc2c3c([nH]c12)C(=O)CC(C)(C)S3	inconclusive [inhibitor, partial curve]
CCN(CC)CCN(Cc1cc2cc3c(cc2[nH]c1=O)OCCO3)C(=S)NCC(C)C	inconclusive [inhibitor, full curve, poor fit]
CCn1c(NCc2ccccc2Cl)nc2ccccc21	inconclusive [inhibitor, partial curve, poor fit]
Cc1ccc(F)cc1NC(=O)N1CCCN(C(=O)OC(C)(C)C)CC1	inactive
Cc1ccc(S(=O)(=O)N2CCC(C(=O)Nc3ccccc3N3CCCCC3)CC2)cc1C	inconclusive [inhibitor, partial curve]
COc1ccc(C2CC(c3ccccc3)=NN2C(=O)c2cccs2)cc1 (configuration not stated)	inconclusive [inhibitor, partial curve, poor fit]
CC(=O)/C=C/c1ccc2ccccc2n1	inconclusive [inhibitor, partial curve, poor fit]
CCNc1c(NS(=O)(=O)c2ccc(OC)cc2)c(=O)oc2ccccc12	inactive
COc1ccc2c(c1)c(/C=N/Nc1nc3ccccc3[nH]1)c(C)n2C	active: 1.47 µM
CCOc1ccc(NC(=O)c2ccc(Cn3nc(C)cc3C)o2)cc1	inconclusive [inhibitor, partial curve, poor fit]
COc1ccc(N2CCN(C(=O)NCc3ccc(OC)c(OC)c3)CC2)cc1	inactive
Cc1ccc(C)c(CN2C(=O)CSc3ccc(C(=O)N4CCCC4)cc32)c1	inconclusive [inhibitor, single point]
Cn1c(CCCCCN)nc2ccccc21	inconclusive [inhibitor, single point]
CC1=CC(=O)C=C(C)C1=NOc1ccccc1[N+](=O)[O-]	inactive
C=CCNC(=O)c1ccccc1NC(=O)c1ccc(Cl)c(S(=O)(=O)Nc2cccc(C)c2C)c1	inconclusive [inhibitor, single point]

SMILES	Potency
CC(=O)c1cccc(NC(=O)CSc2nnc(C(C)N(C)C)n2Cc2ccccc2)c1 (configuration not stated)	inconclusive [inhibitor, single point]
Cc1ccc(N(Cc2ccco2)C(=O)c2cccc(S(=O)(=O)N(C)C)c2)cc1	inconclusive [inhibitor, partial curve]
CC(C)CN(C(=O)COC(=O)c1ccc(-c2ccccc2)cc1)C1CCS(=O)(=O)C1 (configuration not stated)	inconclusive [inhibitor, single point]
CS(=O)(=O)N1CCC(C(=O)Nc2ccc(Oc3ccccc3)cc2)CC1	inactive
N#Cc1c(F)cccc1N1CCN(Cc2ccc3c(c2)OCO3)CC1	inconclusive [inhibitor, single point]
Cc1ccc(C(=O)N(CC(=O)NC2CCCC2)Cc2cccs2)s1	inactive
CCOC(=O)[C@H]1[C@H]2COc3ccc(OC)cc3[C@@H]2N2C(=O)CN(Cc3ccc(Cl)cc3)C(=O)[C@@]12C	active: 14.7 µM
CCOC(=O)c1c(NC(=O)CSc2nnc(CNc3ccc(F)cc3)o2)sc(C)c1C	inconclusive [inhibitor, partial curve, poor fit]
COc1ccc(NC(=O)COC(=O)c2c3c(nc4ccccc24)CCCC3)cc1	inconclusive [inhibitor, single point]
COc1ccccc1CN(C)C(=O)c1cccc(S(=O)(=O)N2CCc3ccccc3C2)c1	inconclusive [inhibitor, single point]
CCN(CC)S(=O)(=O)c1ccc(Oc2ccc(S(=O)(=O)N(CC)CC)cc2)cc1	inconclusive [inhibitor, single point]
O=C(CN(C(=O)CCC(=O)Nc1nccs1)c1ccc2c(c1)OCO2)NCc1ccc(F)cc1	inconclusive [inhibitor, partial curve]
Nc1nnnn1/N=C/C(Br)=C/c1ccccc1	inconclusive [inhibitor, partial curve, poor fit]
C=C(C)Cn1c(-c2ccc(OC)cc2)nc2ccccc21	inactive
CN(C)CCn1c2c(c(SCC(=O)NCc3ccccc3)nc1=O)CCCC2	inconclusive [inhibitor, single point]
Cc1c(C=O)c2ccccn2c1C(=O)c1cccc([N+](=O)[O-])c1	inactive
O=C1/C(=C/c2ccccc2O)SC(=S)N1Cc1cccnc1	inactive
O=C(/C=C/c1ccccc1)NC(NC(=S)Nc1cccc(Cl)c1)C(Cl)(Cl)Cl (configuration not stated)	inconclusive [inhibitor, single point]
O=C(NCCC1=CCCCC1)C(=O)NCc1ccccc1	inactive
CN(CC1CCN(CCc2cccc(C(F)(F)F)c2)CC1)C(=O)c1ccc(F)cc1F	inconclusive [inhibitor, partial curve, poor fit]
CCOc1cc(C)ccc1OCc1nnc(SCC(=O)c2cccc([N+](=O)[O-])c2)n1C	inconclusive [inhibitor, partial curve]
